Data: PMC4336329 (PLoS ONE, 2015)
The campaign covered roughly 310,000 compounds. About 2,200 (0.71%) showed an effect of 50% or more. The effect is printed as a negative number. Some of the results follow.

molecular target: human ether-à-go-go-related gene (hERG) potassium channel (human, UniProt Q12809); test: primary screen, population patch clamp on CHO cells stably expressing hERG
Sequence (Q12809 whole entry, looked up): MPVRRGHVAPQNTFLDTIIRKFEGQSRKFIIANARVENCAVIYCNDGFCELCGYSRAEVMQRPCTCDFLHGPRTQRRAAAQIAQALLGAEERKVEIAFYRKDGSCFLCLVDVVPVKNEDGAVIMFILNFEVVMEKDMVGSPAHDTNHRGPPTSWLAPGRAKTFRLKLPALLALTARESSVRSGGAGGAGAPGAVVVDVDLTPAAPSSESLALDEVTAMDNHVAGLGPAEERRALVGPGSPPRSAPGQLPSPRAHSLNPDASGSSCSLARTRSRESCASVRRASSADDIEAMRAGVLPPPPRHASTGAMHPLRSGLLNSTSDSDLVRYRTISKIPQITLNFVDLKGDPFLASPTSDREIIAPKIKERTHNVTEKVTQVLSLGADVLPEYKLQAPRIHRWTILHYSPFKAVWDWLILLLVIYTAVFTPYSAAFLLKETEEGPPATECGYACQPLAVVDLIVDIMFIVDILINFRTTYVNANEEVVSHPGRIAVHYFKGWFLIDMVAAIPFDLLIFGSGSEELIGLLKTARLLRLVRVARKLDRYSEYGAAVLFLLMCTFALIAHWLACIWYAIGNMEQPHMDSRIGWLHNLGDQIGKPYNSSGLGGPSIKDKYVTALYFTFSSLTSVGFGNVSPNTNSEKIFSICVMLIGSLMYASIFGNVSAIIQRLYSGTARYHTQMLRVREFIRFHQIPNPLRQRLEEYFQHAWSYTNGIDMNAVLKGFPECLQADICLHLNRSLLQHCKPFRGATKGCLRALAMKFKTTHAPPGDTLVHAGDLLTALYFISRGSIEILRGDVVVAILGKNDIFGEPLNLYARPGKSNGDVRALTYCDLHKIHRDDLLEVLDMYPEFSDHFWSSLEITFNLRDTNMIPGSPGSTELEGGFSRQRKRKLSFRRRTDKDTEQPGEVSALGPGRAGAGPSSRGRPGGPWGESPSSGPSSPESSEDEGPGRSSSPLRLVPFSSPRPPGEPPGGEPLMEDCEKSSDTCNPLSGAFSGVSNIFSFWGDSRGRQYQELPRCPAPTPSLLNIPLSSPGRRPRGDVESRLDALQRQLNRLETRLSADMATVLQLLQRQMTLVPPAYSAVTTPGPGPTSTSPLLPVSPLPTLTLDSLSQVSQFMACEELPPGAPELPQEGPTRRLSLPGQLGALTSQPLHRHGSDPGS

Compound | hERG current change (%, negative = inhibition) at 1uM
CN(CC(=O)NCCCN1CCOCC1)S(=O)(=O)c1ccc(F)cc1 | 15.7%
O=C(O)CC/C(=N/Nc1ncc(C(F)(F)F)cc1Cl)C(=O)O | 12.5%
Cc1ccc(NC(=O)COc2ccccc2)cc1S(=O)(=O)N1CCCCCC1 | 4.39%
C/C(Cl)=C\Cn1c(Nc2cccc(C)c2)nc2c1c(=O)n(C)c(=O)n2C | 5.85%
CCN(CC)C(=O)CSc1nnc2cc(C)c3ccccc3n12 | 14.6%
O=C(Cn1ccc(=O)[nH]c1=O)NCCO | 1.18%
COc1ccc(/C=C/C(=O)Oc2ccc(C=O)cc2OC)cc1 | 10.3%
Cc1nc(Nc2nc(-c3ccccc3)cc(=O)[nH]2)nc2ccccc12 | -5.19%
CCOC(=O)c1nn(-c2ccc(Cl)cc2)c2nc(Nc3ccccc3)cc(=O)n12 | 16.3%
O=C(COc1ccccc1)Nc1nnc(-c2ccc(F)cc2)o1 | 0.983%
CCOC(=O)C(NC(=O)Nc1ccc(O)cc1)(c1ccccc1)C(F)(F)F (centres unmarked) | 10.1%
CSc1nnc(-c2cccc(NC(=O)c3ccccc3)c2)n1C | 0.0495%
CCN(CC)S(=O)(=O)c1cc(NC(=O)C(C)N2CC=C(c3ccccc3)CC2)ccc1C (centres unmarked) | 2.32%
COc1ccc(CNC(=O)C(c2ccco2)N(C(=O)c2snc(C(N)=O)c2N)c2ccccc2OC)cc1 (centres unmarked) | -15.1%
COc1ccc2c(c1)N(S(=O)(=O)c1ccccc1)CCC2=O | 6.21%
Cc1ccc(-n2c(=O)c3sccc3n(Cc3cc(=O)n4ccccc4n3)c2=O)cc1 | -10.7%
CCOc1ccc(S(=O)(=O)NCCC(=O)Nc2ccncc2)cc1 | -9.76%
Cc1c(/C=N\NC(=O)C2COc3ccccc3O2)c2ccccc2n1C (centres unmarked) | 12.9%
O=C(O)CC1(CC(=O)Nc2cc3ccccc3cn2)CCCCC1 | 10.1%
NC(=O)c1nsc(C(=O)N(c2ccccc2)C(C(=O)NCC2CCCO2)c2ccc(F)cc2)c1N (centres unmarked) | 11.4%
O=C(NCCCNC(=O)c1ccccn1)c1ccccn1 | 15%
O=C1CC(=O)C(n2cncn2)C(c2ccc(Cl)cc2)C1 (centres unmarked) | 19.3%
CCN(C(=O)c1ccc2c(=O)n3c(nc2c1)CCCCC3)c1cc(OC)ccc1OC | 8.16%

Compound | hERG current change (%, negative = inhibition) at 1uM
Cn1c(NC(=O)C2CC2)cc(=O)n(C)c1=O | -5.09%
O=C(CCCN=C1NS(=O)(=O)c2ccccc21)OCC(=O)c1ccc(F)c(F)c1 | 0.785%
O=C(NCc1ccco1)c1cc(C(=O)C2CC2)c[nH]1 | 0.933%
CCOC(=O)c1c(S(=O)(=O)NCC(=O)Nc2ccccc2)c(C)n(C)c1C | 4.9%
CC(C)c1cc(C(=O)NNC(=S)NCc2ccco2)c(O)c(C(C)C)c1 | 9.95%
CCOc1cc(-c2c(C#N)c(N)nc3c2CCc2ccccc2-3)ccc1O | 10.9%
O=C(O)CCC(=O)Nc1ccc(NC(=O)c2ccc(Cl)cc2Cl)c(Cl)c1 | 18%
COc1ccc2sc3c(=O)[nH]c4ccccc4c3c2c1 | 0.177%
Cn1c(CO)cnc1SCc1ccc(Cl)cc1 | 7.21%
O=C1CCCN1c1ccc(CNS(=O)(=O)c2ccc(F)cc2)cc1 | 12.4%
COc1ccc(OCC(=O)N/N=C(\CCC(=O)O)c2cccs2)cc1 | 9.88%
N#CCC(=O)N/N=C\c1ccccc1OC/C=C/c1ccccc1 | 13.3%
COc1ccc(OC)c(/C=C/C(=O)OCC(=O)Nc2ccc(Cl)c(S(=O)(=O)N(C)C)c2)c1 | 14.4%
Cc1ccc(/C=C2\CCC(C3CCCC3)C2=O)cc1 (centres unmarked) | -1.26%
FC(F)(F)c1ccc2c(c1)NP(=S)(N1CCOCC1)c1nccn1-2 (centres unmarked) | 6.98%
CCOc1ccc(N(C)S(=O)(=O)c2cc(-c3cc(C)no3)ccc2C(C)C)cc1 | 3.37%
CCC(=NCCc1c(C)[nH]c2ccc(OC(F)(F)F)cc12)C1=C(O)CC(c2ccccc2)CC1=O (centres unmarked) | 8.44%
CCOC(=O)CCCc1ccc(/C(C)=N/NC(N)=S)cc1 | 9.82%
Cc1cc(NC(=O)CSc2nc3c(C)c(C)ccc3cc2C)no1 | -18%
Cc1cccc(NC(=O)CN(C)C(=O)C2CCCC2)c1C | 12.6%
CC1CN(S(=O)(=O)c2ccccc2)C(C)N1C(=O)N1CCOCC1 (centres unmarked) | 11.6%
NC(=O)CC(NC(=O)c1cccc(Br)c1)c1ccc(NC2CCN(Cc3ccccc3)CC2)c([N+](=O)[O-])c1 (centres unmarked) | 19.1%
CC(C)=Cc1oc2ccc([N+](=O)[O-])cc2c1N1CCOCC1 | 2.82%

Compound | hERG current change (%, negative = inhibition) at 1uM
CSCCC(NC(=O)c1ccc([N+](=O)[O-])cc1Cl)C(=O)OCC(=O)NC1CCCC(C)C1C (centres unmarked) | -10.9%
CCOc1ccc(NC(=S)NC(C)C(c2ccccc2)N2CCN(C)CC2)cc1 (centres unmarked) | 3.99%
Cc1cc(NC(=O)CSc2ccc(-c3ccc(Br)cc3)nn2)no1 | 8.41%
COc1ccc(CCN(C)C(=O)c2cnc(C)cn2)cc1OC | 7.46%
Cc1cccc(C(c2c(C)nn(-c3ccccc3)c2N)c2c(C)nn(-c3ccccc3)c2N)c1 | -3.5%
C=CCNc1c2c(nc3ncnn13)CC(C)CC2 (centres unmarked) | 8.4%
CC1CC(C)CN(C(=O)COC(=O)c2ccc3ccccc3n2)C1 (centres unmarked) | 13.7%
Cc1cccc(NC(=O)CSc2nnc(-c3ccncc3)n2C)c1 | -8.36%
S=C(NCc1ccccc1)NN1CCOCC1 | 12.1%
C/C(=N\NC(=S)Nc1ccccc1)c1c(O)n(C)c(=O)n(C)c1=O | 12.8%
N#Cc1c2n(c3c(=O)n(Cc4ccc(Cl)cc4)cnc13)CCCC2 | -11.9%
CCOCCCNc1nc(=S)[nH]c2cc(OC)c(OC)cc12 | -2%
CCOC(=O)C1CCN(c2ccc([N+](=O)[O-])cc2)CC1 | -23.5%
Cc1nc2ccccc2c(=O)n1/N=C/c1ccccc1OC(F)F | 13.1%
O=C(O)C(F)(F)S(=O)(=O)O | 13.1%
CCCCCCCc1nc2c(=O)n(C)c3ccccc3c2o1 | 9.76%
COc1cc(NC(=O)CSc2ccc3c(c2)OCCO3)cc(OC)c1OC | 11.3%
Cc1occc1C(=O)N1CCCC(CCC(=O)NCc2ccc(F)c(F)c2)C1 (centres unmarked) | 9.2%
C(=N\N1CCOCC1)/c1nc(-c2ccccc2)n2ccccc12 | 0.84%
O=C(NNC(=O)C1CC=CCC1)c1ccccc1O (centres unmarked) | 9.37%
COc1ccc(NC(=O)C2CC(=O)N(c3ccccc3Cl)C2)c(OC)c1 (centres unmarked) | 13.2%
N=C1C(c2ccccc2)=C(O)CN1c1cccc(S(N)(=O)=O)c1 | 11.8%
COc1cc2c(cc1OC)CN(CC(=O)Nc1ccccc1C(=O)NC1CC1)CC2 | -6.04%

Compound | hERG current change (%, negative = inhibition) at 1uM
CN1CCN(c2ccc(CNS(=O)(=O)c3cccc(F)c3)cc2)CC1 | 13.7%
CCOC(=O)C1CCN(c2ccc(C(N)=O)cc2[N+](=O)[O-])CC1 | 9.09%
O=C(Nc1nccs1)C1CCCN1/C=C/C(=O)C(F)(F)F (centres unmarked) | 17.1%
CCn1c(SCC(N)=O)nnc1-c1ccc2c(c1)OCO2 | 5.65%
OCC1(Cc2cccc(C(F)(F)F)c2)CCN(Cc2cc(F)cc(F)c2)CC1 | 4.2%
CCc1ccc(Nc2nnc(SCC(=O)c3c(N)n(C4CC4)c(=O)[nH]c3=O)s2)cc1 | -7.87%
COc1cc(NC(=O)c2cc3ccccc3cc2O)c(OC)cc1Cl | 24.4%
CC1CN(Cc2cc(=O)[nH]c(C(C)C)n2)CC(C)O1 (centres unmarked) | 14.8%
CCc1nc2ccccc2c(C(=O)OCC(=O)Nc2cccc(S(=O)(=O)NC3=NCCCCC3)c2)c1C | 10.3%
CC(C)=C1C2CCC1C(C(=O)Nc1sc(C)c(-c3ccc(C(C)C)cc3)c1C(N)=O)C2C(=O)O (centres unmarked) | 1.88%
O=C1C2C3C=CC(C4CC34)C2C(=O)N1c1ccc2c(c1)OCO2 (centres unmarked) | 16.7%
CC1CC(C)CN(C(=O)c2ccc3ccccc3c2)C1 (centres unmarked) | 1.55%
O=S(=O)(Nc1ccc2c(c1)OCCO2)c1cccc(F)c1 | 13.4%
COc1ccc(NC(C)=O)cc1NC(=O)CSc1nnc(-c2ccncc2)n1C | 16.6%
Cc1oc(-c2ccc(Cl)cc2)nc1CS(=O)CC(=O)NCCCN1CC(C)CC(C)C1 (centres unmarked) | -34.2%
COc1cnc(-c2ccccc2)nc1Oc1ccccc1C | -6.15%
COc1ccc(OC)c(-c2nc(C(=O)NCC3CCCO3)cc3c2[nH]c2ccccc23)c1 (centres unmarked) | -11.4%
CCOC(=O)NC(=O)/C(C#N)=N/Nc1ccc(F)cc1 | -1.11%
CC(O)c1cccc(NC2=CC(=O)CC(C)(C)C2)c1 (centres unmarked) | 3.49%
Cc1c(NC(=O)c2cnn3c2NC(c2ccco2)CC3C(F)(F)F)c(=O)n(-c2ccccc2)n1C (centres unmarked) | 5.11%
